Measured values taken from patent US20230121867A1, “COMPOSITIONS AND METHODS FOR TREATING DISEASES AND CONDITIONS BY DEPLETION OF MITOCHONDRIAL OR GENOMIC DNA FROM CIRCULATION” (Cedars-Sinai Medical Center, priority 2019, published 2023).

Legend:
LNCaP cells = assay: mtDNA content of LNCaP media under dynamin inhibition; type: cell-based; conditions: increasing doses of dynasore
[1] = system: complement C3 and anaphylatoxin C3a in CAF; assay: Complement C3 and anaphylatoxin C3a expression in CAF (western blot); type: cell-based
CAF = assay: Reactive oxygen detection in CAF by DCFDA (FACS, fluorescence microscopy); type: cell-based; conditions: CpG-ODN alone, N-acetylcysteine with LNCaP-CM
[2] = system: circulating mtDNA in the PCa patients; assay: Plasma mtDNA in PCa patients before and during docetaxel treatment; type: in vivo, human; conditions: pre-treatment versus undergoing docetaxel, paired, P = 0.006
LNCaP and PC3 = assay: Western blot of autophagy, mitophagy and ER-stress markers after docetaxel; conditions: LNCaP and PC3

With `O=C(N/N=C/c1ccc(O)c(O)c1)c1cc2ccccc2cc1O` [dynasore] as the compound, how does the “mtDNA content in the media” value (LNCaP cells) read?
Its value is “no appreciable changes”.

Which C3a generation ([1]; catalase inhibitor 10 mM combined with CpG-ODN) does the source give for `Nc1nc[nH]n1` [3-Amino-1,2,4-triazole] here?
Its C3a generation is “no effect”.

What does the source list for `CC(=O)N[C@@H](CS)C(=O)O` [N-acetylcysteine]?
reactive oxygen signal (DCFDA) (CAF): suppressed LNCaP-induced reactive oxygen as well as C3a generation; conversion of C3 to C3a induced by LNCaP-CM ([1]; LNCaP-CM, N-acetylcysteine 10 mM): blocked the conversion of C3 to C3a

How did the “circulating (plasma) mtDNA” value [2] turn out when `CC(=O)O[C@@]12CO[C@@H]1C[C@H](O)[C@@]1(C)C(=O)[C@H](O)C3=C(C)[C@@H](OC(=O)[C@H](O)[C@@H](NC(=O)OC(C)(C)C)c4ccccc4)C[C@@](O)([C@@H](OC(=O)c4ccccc4)[C@H]21)C3(C)C` [docetaxel] was run?
Its value is “dramatic increase”.

What about the “ER-stress proteins p62 and CHOP” value (LNCaP and PC3) of the same compound?
Its value is “induction of endoplasmic reticulum (ER)-stress proteins, p62 and CHOP”.
